The text below walks through data of the supplement of paper PMC4166925.

± gives the standard deviation of the averaged measurements. Over roughly 33,000 sequences, “E-score (dimensionless, -0.5 to 0.5)” has its median near -0.049; the highest 2% begin near 0.37. The list shows a part of the results.

The subject of the experiment is T1, PmTbr T-box DNA-binding domain (GST fusion).
T1 sequence: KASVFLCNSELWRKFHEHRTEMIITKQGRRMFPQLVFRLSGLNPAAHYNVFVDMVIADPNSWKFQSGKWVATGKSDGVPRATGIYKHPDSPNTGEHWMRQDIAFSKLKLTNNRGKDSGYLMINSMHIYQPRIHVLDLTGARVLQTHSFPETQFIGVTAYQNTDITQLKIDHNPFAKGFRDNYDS
The experiment in a line: PBM E-score of 8-mer (E-score (dimensionless, -0.5 to 0.5)); Tbr is Tbrain of the sea star Patiria miniata (Pm) or the sea urchin Strongylocentrotus purpuratus (Sp); higher = stronger binding preference; most listed sequences are background and not binding sites. To be noted: the construct has about 5 more residues each side. The gist of the method:
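Universal Agilent oligonucleotide arrays, made double-stranded by primer extension, were incubated with 200 nM GST-fused Tbr T-box DNA-binding domain in PBS (pH 7.5). The protein was expressed in BL21 E. coli at 20 °C and purified by glutathione affinity chromatography. After scanning and quantification, the Universal PBM Analysis Suite assigned an enrichment E-score to each ungapped 8-mer, averaged over duplicate arrays.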
Consider GCGTAGAC, for which the “PBM E-score of 8-mer” value is -0.0222 ± 0.11. As to ATGTTGTG, the “PBM E-score of 8-mer” value was found to be 0.2029 ± 0.0011.

As for ACCGGCGC, the “PBM E-score of 8-mer” value is -0.0164 ± 0.044.

On to ACCGCCAA, for which the “PBM E-score of 8-mer” value amounted to 0.087 ± 0.033. In the case of CATTCTTA it was -0.235 ± 0.007; in that of AGGAACTG, -0.0228 ± 0.072. Take CGCCAAAA: the “PBM E-score of 8-mer” value came to 0.167 ± 0.052. In the case of ACTTCGAC, the “PBM E-score of 8-mer” value is 0.14 ± 0.024. Regarding CATGCTGG, the “PBM E-score of 8-mer” value is -0.269 ± 0.055. Consider CTCTGATC, for which the “PBM E-score of 8-mer” value was -0.3354 ± 0.0012.

Turning to ATCCAAGA, the “PBM E-score of 8-mer” value was -0.193 ± 0.0037. With GTGGAATA, the “PBM E-score of 8-mer” value is -0.0631 ± 0.11. As to ACTCCGCG, the “PBM E-score of 8-mer” value is -0.0699 ± 0.048. GACGAGCA: the “PBM E-score of 8-mer” value is -0.154 ± 0.0018. Turning to ACGACAGA, the “PBM E-score of 8-mer” value was -0.056 ± 0.0035. On to TGAGATAA, for which the “PBM E-score of 8-mer” value stood at 0.13 ± 0.02. In the case of AGGGAATA it was -0.0759 ± 0.021; in that of TATATATA, -0.0971 ± 0.13. ATGCATGG: the “PBM E-score of 8-mer” value was -0.144 ± 0.052.

In the case of AGACCTCC, the “PBM E-score of 8-mer” value was -0.42 ± 0.0099. For CAAGCATC, the “PBM E-score of 8-mer” value is -0.0899 ± 0.042. With ATCTGGTA, the “PBM E-score of 8-mer” value is -0.25 ± 0.032. Consider GTAAGTTA, for which the “PBM E-score of 8-mer” value was -0.201 ± 0.061. Turning to ACGTACGC, the “PBM E-score of 8-mer” value is 0.161 ± 0.033. Turning to CGTTATTA, the “PBM E-score of 8-mer” value was -0.117 ± 0.038. As to ACAAGGAC, the “PBM E-score of 8-mer” value is -0.212 ± 0.0072. Turning to CTCGTCTC, the “PBM E-score of 8-mer” value stood at 0.0625 ± 0.065. Regarding CTCTTCAG, the “PBM E-score of 8-mer” value is -0.156 ± 0.04.

GAAGTGGC: the “PBM E-score of 8-mer” value was found to be 0.3 ± 0.026. Take GCCGTTTA: the “PBM E-score of 8-mer” value amounted to 0.0685 ± 0.045. In the case of CCTACGGA it was -0.208 ± 0.097; in that of CGTTTGTA, -0.0191 ± 0.039; in that of AGGCGCTG, 0.202 ± 0.039. In the case of ATGTTCAC it was 0.287 ± 0.017; in that of CCGACATC, -0.0298 ± 0.027. In the case of GAGAATCA it was -0.0408 ± 0.031; in that of TATCCGCA, -0.00417 ± 0.022; in that of GATGTCAA, 0.044 ± 0.022. For ATTCCAGA, the “PBM E-score of 8-mer” value was 0.0397 ± 0.077. Take CATGGGGA: the “PBM E-score of 8-mer” value is -0.242 ± 0.035.

For CATGCTCC, the “PBM E-score of 8-mer” value worked out at 0.0189 ± 0.015. Turning to AGTGCGGG, the “PBM E-score of 8-mer” value came out at 0.095 ± 0.046.

For CGACCAAG, the “PBM E-score of 8-mer” value was determined as 0.0345 ± 0.035. For the sequence TGGAAAAA, the “PBM E-score of 8-mer” value was -0.0885 ± 0.0069. In the case of AGTACTAG, the “PBM E-score of 8-mer” value was -0.219 ± 0.06.

Consider AGAACAGA, for which the “PBM E-score of 8-mer” value was -0.248 ± 0.027.

In the case of CTTTTGAC, the “PBM E-score of 8-mer” value is 0.116 ± 0.077. In the case of CGATAAAA it was 0.195 ± 0.062; in that of ACCCTTAC, 0.0968 ± 0.058. Turning to CCTCAGGC, the “PBM E-score of 8-mer” value is -0.268 ± 0.021. Consider AACCTTGC, for which the “PBM E-score of 8-mer” value is 0.060455 ± 2.1e-05. CTTTCAAC: the “PBM E-score of 8-mer” value was -0.0375 ± 0.03. In the case of CGGACTCC, the “PBM E-score of 8-mer” value was -0.179 ± 0.019.

As for AGGGTTAG, the “PBM E-score of 8-mer” value is -0.0834 ± 0.083.

For the sequence GTCGTCCA, the “PBM E-score of 8-mer” value is -0.0348 ± 0.01.

Take ACATATGA: the “PBM E-score of 8-mer” value was determined as 0.0313 ± 0.063. In the case of AAGACCGG it was -0.225 ± 0.011; in that of CGGTGAAC, -0.0742 ± 0.016. As to CACGTCTG, the “PBM E-score of 8-mer” value was 0.314 ± 0.025. In the case of CAGCTAGG it was 0.1627 ± 0.00036. As for ACGTCACA, the “PBM E-score of 8-mer” value was found to be 0.258 ± 0.021. For CGATATAG, the “PBM E-score of 8-mer” value was -0.0783 ± 0.038. In the case of GCGGAACA it was -0.013 ± 0.08; in that of GGGCGACC, -0.168 ± 0.012. In the case of AAATACAC it was 0.13 ± 0.046. Regarding CAACTGCA, the “PBM E-score of 8-mer” value was -0.0781 ± 0.015.

With AGCGCCCC, the “PBM E-score of 8-mer” value came out at 0.187 ± 0.059. Take CTTTGTTA: the “PBM E-score of 8-mer” value amounted to 0.0892 ± 0.016. Consider CACGCTCG, for which the “PBM E-score of 8-mer” value amounted to 0.172 ± 0.081. In the case of AGTGCAAA it was 0.311 ± 0.036. As for ACCCGTCA, the “PBM E-score of 8-mer” value was 0.301 ± 0.029. In the case of ATTATGAC, the “PBM E-score of 8-mer” value was -0.0738 ± 0.063. Take CGGGACCC: the “PBM E-score of 8-mer” value is -0.3 ± 0.025. For CTTGAGGA, the “PBM E-score of 8-mer” value was -0.272 ± 0.012. For AATGGGAC, the “PBM E-score of 8-mer” value is -0.0258 ± 0.0075. On to CACGATCG, for which the “PBM E-score of 8-mer” value came out at 0.155 ± 0.0039. For the sequence GTGAGCAC, the “PBM E-score of 8-mer” value came to 0.101 ± 0.017. Consider CAGGTGCA, for which the “PBM E-score of 8-mer” value amounted to 0.277 ± 0.021. For CAAATCGG, the “PBM E-score of 8-mer” value was found to be 0.0385 ± 0.026. As to CAACATAA, the “PBM E-score of 8-mer” value was -0.0105 ± 0.069.

As for AGTGGGTG, the “PBM E-score of 8-mer” value came out at 0.251 ± 0.029.

For AACCCTGG, the “PBM E-score of 8-mer” value came out at 0.0108 ± 0.035. As for CTTTTTGA, the “PBM E-score of 8-mer” value was determined as 0.247 ± 0.065. In the case of CCTTGACA it was 0.27 ± 0.0047. With ACTTAGCC, the “PBM E-score of 8-mer” value was -0.0115 ± 0.035. Take CGCTGTTA: the “PBM E-score of 8-mer” value was 0.0368 ± 0.0067.
